# According to PubChem BioAssay AID1508624 (National Center for Advancing Translational Sciences (NCATS), 2021):
# Out of some 48,000 compounds screened, about 120 (0.25%) were called active. Not shown: some 4% with an inconclusive outcome. Calls come from the whole dose curve; as a rule, active = well fitted activation curve with a large enough effect; inconclusive = small, poorly fitted or top-dose-only effect, or another doubt; inactive = no such curve, though single readings can be large or run the other way. The list shows a part of the results.
# Experiment: Primary qHTS for Identification of Small Molecule Activators of Huntingtin-Antisense Promoter Activity; note: nearly all actives have a fitted effect of over 55% in size
# Settings: HEK293 HTT-AS promoter firefly luciferase reporter, 24 h
# Text: Assay Provider: Russell L. Margolis M.D.
# Department Neurology, Johns Hopkins University School of Medicine, Baltimore, MD
# Huntington's Disease (HD) is a neurodegenerative disorder caused by a CAG repeat expansion in exon 1 of huntingtin (HTT). While there are currently no disease-modifying treatments for HD, recent efforts have focused on development of nucleotide-based therapeutics to lower HTT expression. As an alternative to siRNA or oligonucleotide methods, we hypothesized that suppression of HTT expression might be accomplished by small molecules that either (1) directly decrease HTT expression by suppressing HTT promoter activity or (2) indirectly decrease HTT expression by increasing the promoter activity of HTT-AS, the gene antisense to HTT that appears to inhibit expression of HTT.
# We developed and employed a high throughput screen for modifiers of HTT and HTT-AS promoter activity using luminescent reporter HEK293 cells; of the 52,041 compounds tested, we identified 898 replicable hits. We used a rigorous stepwise approach to assess compound toxicity and the capacity of the compounds to specifically lower huntingtin protein in 5 different cell lines, including HEK293 cells, HD lymphoblastoid cells, mouse primary neurons, HD iPSCs differentiated into cortical-like neurons, and HD hESCs. We found no compounds which were able to lower huntingtin without lowering cell viability in all assays, though the potential efficacy of a few compounds at non-toxic doses could not be excluded.
# SEQUENCE No. (1, 2, 3, etc.); […] (e.g., Cells, Incubation, Reagent, etc.); VALUE and DESCRIPTION.
# 1; Reagent; 4 uL; 2,500 Hek293 luciferase reporter cells per wells
# 3; Compound; 23 nL; Control inhibitor / compound library
# 5; Reagent; 2.5 uL; Firefly Luc reagent; Dual-Glo Luciferase Reporter Assay System (Promega)
# 6; Time; 10 min; room temperature incubation
# 7; Detection; Luminescence; FLuc
# NOTES (numbers refer to sequence above)
# 1; High-throughput screening, measuring luminescence from a Hek293 luciferase reporter, was performed in 1,536 well white-walled tissue-culture treated plates. 2,500 cells were plated in 4 µL of Opti-MEM per well using a Multidrop Combi Reagent Dispenser (ThermoFisher).
# 2; Assay plates were cultured for 24 hours.
# 3; Control inhibitor (PTC124; final concentration of 50 uM) and compound library (at final concentrations of 460 nM - 57.5 uM) were added to the assay plate using the Kalypsis Pintool Robotic System equipped with 1536 pinheads.
# 4; Cells were then incubated for 24 hours at 37 degrees C prior to luminescence measurements.
# 5; In all cases, luminescence was measured using the Dual-Glo Luciferase Reporter Assay System (Promega) following the manufacturer's instructions.
# 6; Room temperature incubation.
# 7; Luminescence signal was obtained using the PerkinElmer ViewLux plate reader. Results were normalized to vehicle control (0% activity) and zero RLU (-100% activity).
# [1] = at 57.5 µM (top of the series) unless noted
compound,measurement,setting,value
O=C(c1ccc2c(c1)N(Cc1ccc(F)cc1)C(=O)c1ccccc1S2)N1CCC2(CC1)OCCO2,"activity change, positive = activation",[1],inactive: -21.1%
O=[N+]([O-])c1cc([As](=O)(O)O)ccc1O,"activity change, positive = activation",[1],inactive: -3.85%
CC[C@@H]1[C@@H](C)O[C@@](O)([C@@H](C)[C@H](O)[C@H](C)[C@H]2OC(=O)C=CC=C[C@@H](C)[C@@H]([C@@H](C)[C@@H](O)[C@H](C)[C@@]3(O)C[C@H](O[C@H]4C[C@H](O)[C@H](O)[C@H](C)O4)[C@H](CC)[C@@H](C)O3)OC(=O)C=CC=C[C@@H]2C)C[C@H]1O[C@H]1C[C@H](O)[C@H](O)[C@H](C)O1,"activity change, positive = activation",[1],inactive: -93.9%
Cc1nnc(NC(=O)c2cccn(Cc3cccc(F)c3)c2=O)s1,"activity change, positive = activation",[1],"inactive: 2.56% [at 57.5 µM, percent change from vehicle, -100% = no light]"
O=c1oc2ccccc2c(O)c1Cc1c(O)c2ccccc2oc1=O,"activity change, positive = activation",[1],inactive: -20%
Cc1ccc(OCC(=O)Nc2ccc(Cl)cc2C(=O)c2ccccc2)cc1C,"activity change, positive = activation",[1],inactive: 0.264%
CC1N=C(N)OC1c1ccccc1 (stereo unspecified),"activity change, positive = activation",[1],inactive: -4.19% [at 116 µM]
O=c1[nH]c2ccccc2n1C1CCN(Cc2ccc(-c3[nH]c4cc5ncnc5cc4nc3-c3ccccc3)cc2)CC1,"activity change, positive = activation",[1],inactive: -3.34%
COc1cccc(-c2nn3c(=O)cc(CN4CCN(C(=O)COc5ccccc5C)CC4)nc3s2)c1,"activity change, positive = activation",[1],inactive: -3.97%
CCCCCCCCc1ccc(O)cc1,"activity change, positive = activation",[1],inactive: 6.24% [at 116 µM]
Oc1cc(Cl)ccc1Oc1ccc(Cl)cc1Cl,"activity change, positive = activation",at 57.5 µM (top of the series),inactive: -35.2%
same,"activity change, positive = activation",at 116 µM (top of the series),inactive: -59.6%
CC1(C)C(C=C(Cl)Cl)C1C(=O)OC(C#N)c1cccc(Oc2ccccc2)c1 (stereo unspecified),"activity change, positive = activation",[1],"inactive: -2.57% [at 57.5 µM, percent change from vehicle, -100% = no light]"
CCCCC12CN3CC(C)(CN(C1)C3c1ccccn1)C2=O (stereo unspecified),"activity change, positive = activation",[1],"inactive: -10.8% [at 57.5 µM, percent change from vehicle, -100% = no light]"
CCOc1ccc(CN(CCc2ccc3c(c2)OCO3)Cc2ccc(C)cc2)cc1,"activity change, positive = activation",[1],inactive: -14.8%
CC(C)Cc1nc2cccnc2n1C1CCNCC1,"activity change, positive = activation",[1],"inactive: -9.94% [at 57.5 µM, percent change from vehicle, -100% = no light]"
CCN(CC)C(C)C(=O)c1ccccc1 (stereo unspecified),"activity change, positive = activation",[1],inactive: -1.83%
Cc1cccc(-n2nc(C)c3c2NC(=O)CSC3c2ccccc2Cl)c1 (stereo unspecified),"activity change, positive = activation",[1],"inactive: -33.5% [at 57.5 µM, percent change from vehicle, -100% = no light]"
COc1cc(CC#N)cc(OC)c1OC,"activity change, positive = activation",[1],inactive: -0.047%
CCC(C)C(C)(COC(N)=O)COC(N)=O (stereo unspecified),"activity change, positive = activation",[1],inactive: -5.04%
Cc1cccc(CN2C(=O)CN=C(c3ccccc3)c3ccccc32)c1,"activity change, positive = activation",[1],inactive: -44.5%
COc1ccc(-n2c(/C=C/c3cccc(F)c3)nc3ccccc3c2=O)cc1Cl,"activity change, positive = activation",[1],inactive: -2.85%
Cc1ccc(NC(=O)Cn2cc(C(=O)c3ccccc3)c3ccccc32)c(C)c1,"activity change, positive = activation",[1],inactive: -35.7%
O=C(N[C@@H]1N=C(c2ccccc2F)c2cccc3c2N(CC3)C1=O)c1cc2ccccc2[nH]1,"activity change, positive = activation",[1],inactive: -10.8%
COc1cccc(C2SCC(=O)Nc3c2c(C)nn3-c2ccc(C)c(Cl)c2)c1OC (stereo unspecified),"activity change, positive = activation",[1],inactive: -36.9%
CC(=O)Nc1ccc(OC[C@](C)(O)C(=O)Nc2ccc([N+](=O)[O-])c(C(F)(F)F)c2)cc1,"activity change, positive = activation",[1],inactive: -21.8%
COc1ccc2c3c1O[C@H]1[C@H](O)CC[C@H]4[C@@H](C2)N(C)CC[C@@]341,"activity change, positive = activation",[1],inactive: -5.97% [at 116 µM]
CC(C)=CCN1CC[C@@]2(C)c3cc(O)ccc3C[C@@H]1[C@@H]2C,"activity change, positive = activation",[1],inactive: -21.5% [at 116 µM]
Cc1cccc(-c2nn3c(=O)cc(CN4CCN(C(=O)COc5ccc(Cl)cc5)CC4)nc3s2)c1,"activity change, positive = activation",[1],inactive: -1.33%
O=c1c2ccccc2nc(/C=C/c2ccccc2F)n1-c1cccc(O)c1,"activity change, positive = activation",[1],inactive: -16.9%
CCc1nc(SC)ncc1C(=O)Nc1ccc(Cl)cc1C(=O)c1ccccc1,"activity change, positive = activation",[1],"inactive: -18.7% [at 57.5 µM, percent change from vehicle, -100% = no light]"
O=C(Nc1ccc2c(c1)OCO2)c1cccn(Cc2cccc([N+](=O)[O-])c2)c1=O,"activity change, positive = activation",[1],inactive: -18.7%
C[C@](O)(COc1ccc(C#N)cc1)C(=O)Nc1ccc(C#N)c(C(F)(F)F)c1,"activity change, positive = activation",[1],inactive: -33%
CC=C(C)C(=O)N[C@@H](c1ccccc1)[C@@H](O)C(=O)O[C@H]1C[C@@]2(O)[C@@H](OC(=O)c3ccccc3)[C@@H]3[C@]4(OC(C)=O)CO[C@@H]4C[C@H](O)[C@@]3(C)C(=O)[C@H](OC(C)=O)C(=C1C)C2(C)C,"activity change, positive = activation",[1],inactive: -33.9%
COc1ccc(NC(=O)CCc2nc(C3=CCN(Cc4cccc(Cl)c4)CC3)no2)c(OC)c1,"activity change, positive = activation",[1],inactive: -25.9%
O=S1(=O)N(Cc2ccccc2Cl)CCCN1Cc1ccccc1Cl,"activity change, positive = activation",[1],"inactive: -25.8% [at 57.5 µM, percent change from vehicle, -100% = no light]"
